Data from publication PMC6212790.
The other results are listed elsewhere or left out. At the low end of the ranking, values are background and their order means little.

What follows are sequences tested against T1, GST-Rok-C97-191 (UniProt O34857) (assay: protein binding microarray). Conditions: Rok is a gene silencer of Bacillus subtilis; high values mean tight binding; most listed sequences are background and not binding sites; double strand, one strand shown.
T1 sequence: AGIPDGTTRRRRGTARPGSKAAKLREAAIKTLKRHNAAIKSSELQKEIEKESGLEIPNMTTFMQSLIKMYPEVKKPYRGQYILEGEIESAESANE
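Note: rank score from −0.5 (least bound) to 0.5 (best bound).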

| Sequence | binding signal [E-score] |
| --- | --- |
| GGGCGGAA | -0.213 |
| TTTGCAAA | 0.141 |
| CCGGTCCC | -0.243 |
| TGCATCAA | 0.0866 |
| GCTCCTAC | -0.156 |
| CCTGTTGA | 0.0932 |
| CGCGGCAA | 0.0901 |
| GCATGAAA | -0.0052 |
| TAAGACAA | -0.0918 |
| TACTAGAA | 0.348 |
| GGAGCCAC | -0.209 |
| AATCCCTA | 0.0763 |
| ACAGGCCT | -0.287 |
| CCGATAGA | 0.198 |
| CCAGTTGA | -0.091 |
| CTAGATAG | 0.324 |
| CAACCGAC | -0.206 |
| AACAGCCA | -0.134 |
| ATTGAACC | -0.0128 |
| GGCTACCC | -0.247 |
| CCAGCGCC | -0.356 |
| CTGTTAGC | 0.176 |
| TATGTGCA | 0.0361 |
| ACTCGTGA | -0.0468 |
| ACAGCCCC | -0.247 |

| Sequence | binding signal [E-score] |
| --- | --- |
| ACAATACC | 0.0831 |
| AGCTGATG | -0.00908 |
| GGTTAAAC | 0.102 |
| AGACTCCA | -0.176 |
| AGTCTAAA | 0.0248 |
| AGGGTAAC | -0.119 |
| CAATCTGC | 0.0189 |
| TCTGGTAA | 0.245 |
| ATGCTCAA | -0.0151 |
| AGAGACAA | -0.0936 |
| CAGATAAA | 0.112 |
| TACTAGCA | 0.256 |
| ATTTCCGA | 0.00267 |
| AGTCTCAT | -0.16 |
| AGCGGATG | -0.0347 |
| AAAAGTTG | 0.104 |
| TGGCGCAA | -0.11 |
| ATTGAACG | 0.102 |
| AGGGATTG | -0.0819 |
| AGTTACCC | 0.243 |
| AGTGTCGG | 0.0975 |
| ATAATATC | 0.209 |
| CAGGTCGC | -0.118 |
| ACCATGTA | 0.282 |
| GATTTTGA | 0.00182 |

| Sequence | binding signal [E-score] |
| --- | --- |
| GCCGACGA | -0.261 |
| AGCACAGC | -0.089 |
| AATATTGT | 0.372 |
| GGGTACCA | -0.134 |
| CCTTCTAG | 0.0722 |
| AAGACATT | -0.0608 |
| CGTGTAAA | 0.00822 |
| CGATTAGC | 0.097 |
| CAGCCCTA | -0.133 |
| AAGGTCAT | -0.0255 |
| ATGCGCAC | -0.0981 |
| CAGAAAAC | 0.0277 |
| ACGCTTGG | -0.235 |
| CCATTCCA | -0.151 |
| AGACGGTC | -0.222 |
| CAAATACA | 0.187 |
| CCTCATAC | 0.0322 |
| ATGACCTA | -0.0267 |
| ATCTTTTA | 0.239 |
| CAGCTGCG | -0.282 |
| GGTCGGAA | 0.0129 |
| GCCTGGAC | -0.192 |
| AAAGGGTC | -0.19 |
| CAATGGCG | -0.0875 |
| AGACAGCT | -0.196 |

| Sequence | binding signal [E-score] |
| --- | --- |
| AAGAAACT | 0.217 |
| CCTGTCAA | -0.118 |
| CGGTCCAG | -0.196 |
| CTACCCAA | -0.00276 |
| TACATCAA | 0.188 |
| AAGGATGT | -0.0483 |
| GTCGGGTA | 0.0532 |
| CTATGGTA | 0.211 |
| ATTCACTC | -0.124 |
| GATTTGGC | -0.0055 |
| AGGGGGTG | -0.382 |
| GATACTAC | 0.313 |
| AGTCTTGG | -0.108 |
| AGAATCAT | 0.241 |
| ATTCGCGC | -0.0661 |
| AGTCATGC | -0.00825 |
| CTTGGTAC | 0.0462 |
| TTAAAAAA | -0.0566 |
| AATATCCA | 0.12 |
| ATAAACAA | 0.0695 |
| CCTGACCC | -0.269 |
| ACAGAGGT | -0.094 |
| CCGTCCCA | 0.0347 |
| GAGGCATA | -0.0575 |
| ATTAAGTC | -0.018 |

| Sequence | binding signal [E-score] |
| --- | --- |
| AGGAAGAC | -0.0651 |
| GCGGTTCC | -0.143 |
| GGGCGTCA | -0.293 |
| GCTATTGA | 0.0757 |
| ATGTGAAT | 0.0623 |
| ACCACCAT | -0.0276 |
| ACAGCGTG | -0.123 |
| GAAGCCTC | -0.166 |
| ATTGATAC | 0.22 |
| ATAGGCCC | -0.222 |
| AAGCCTAA | -0.0889 |
| ACTTGCCG | -0.0251 |
| ATCCCAGC | -0.154 |
| GCCGGCCC | -0.255 |
| ATGTGAAC | 0.0898 |
| ACTCGGTA | 0.286 |
| AAGAAGCA | -0.117 |
| CCCCCCCC | -0.28 |
| ATACGAAC | 0.134 |
| GACGCGTC | -0.099 |
| AACCAACA | 0.202 |
| AAACAGTC | -0.0408 |
| CGTTTTAA | 0.186 |
| ATCAACAA | -0.00505 |
| ACCACGCG | -0.228 |

| Sequence | binding signal [E-score] |
| --- | --- |
| GTGATTTA | 0.0263 |
| CTAGGCCC | -0.276 |
| GACTCCGC | -0.151 |
| CTTTTAAA | 0.0378 |
| GGTCAACC | -0.0613 |
| TGGTTACA | 0.0946 |
| ACGCAGTC | -0.208 |
| ATGCTAGC | 0.102 |
| GTCGCACA | -0.0384 |
| CCACGAAC | -0.316 |
| CGACCTAA | -0.105 |
| CGTTCCAG | 0.0308 |
| CCGGCAGA | -0.102 |
| CCGATTGA | -0.00347 |
| GGGACAAC | -0.161 |
| GGGCACGA | -0.233 |
| CAAGTCGC | -0.162 |
| CCGGAGAC | -0.0555 |
| GGTTGAGA | 0.00996 |
| AACTTGGT | -0.119 |
| AAGCCCTT | -0.092 |
| CCCTAAAG | -0.181 |
| ATTCCACA | 0.138 |
| ATGGATAA | 0.274 |
| GTAAGCGA | -0.0245 |

| Sequence | binding signal [E-score] |
| --- | --- |
| AGTTCAAA | 0.0142 |
| CGTCCAAG | -0.0772 |
| TAAAGCAA | -0.0284 |
| CCGGGAAA | -0.0708 |
| CTATGCCA | -0.00435 |
| CACGCTAG | 0.102 |
| CGACGGAC | -0.255 |
| AGGCTTTC | -0.0156 |
| GTAATTAA | 0.213 |
| CTAGTAGC | 0.251 |
| ATAACTAC | 0.323 |
| CCCCACAA | -0.324 |
| GCTCCTAA | -0.264 |
| GTGTCATA | -0.0304 |
| GATACGCC | 0.0171 |
| TGAGTTAA | 0.247 |
| CCCACGGG | -0.352 |
| CAAAGGCA | -0.18 |
| ACGTGGGG | -0.173 |
| AGTGCGTG | 0.0624 |
| AATAGTAG | 0.475 |
| ACCAGACT | -0.239 |
